Experimental findings from US20100104509A1, “HUMAN ANTIBODIES THAT BIND CD19 AND USES THEREOF” (Medarex, Inc., priority 2006, published 2010) are described below.

Data set [1] in a line: Differential scanning calorimetry. Type of data set: physicochemical. To be noted: 2.3 μM in PBS pH 7.4, 30 to 95° C. at 1° C./min. On the procedure:
The thermal stability of the anti-CD19 monoclonal antibodies were compared using calorimetric analysis of their melting temperatures.
Calorimetric measurements of melting Temperatures™ were carried out on a VP-Capillary DSC differential scanning microcalorimeter platform that is combined with an autosampler (MicroCal LLC, Northampton, Mass., USA). Sample cell volume is 0.144 mL. Denaturation data on the glycosylated and deglycosylated forms of the antibodies was obtained by heating the samples, at a concentration of 2.3 μM, from 30 to 95° C. at a rate of 1° C./min. The protein samples were present in phosphate-buffered saline (PBS) at pH 7.4. The same buffer was used in the reference cell to obtain the molar heat capacity by comparison. The observed thermograms were baseline corrected and normalized data analyzed based on a 2-state model, using the software Origin v7.0.

A further data set has as its target T1, Daudi B cell line (Homo sapiens, UniProt P15391).
T1 construct: the CD19 protein is expressed on the surface of tumor cell lines of B cell origin; endogenous in cells; host or cells: Daudi B tumor cell line
T1 sequence (P15391 20-556): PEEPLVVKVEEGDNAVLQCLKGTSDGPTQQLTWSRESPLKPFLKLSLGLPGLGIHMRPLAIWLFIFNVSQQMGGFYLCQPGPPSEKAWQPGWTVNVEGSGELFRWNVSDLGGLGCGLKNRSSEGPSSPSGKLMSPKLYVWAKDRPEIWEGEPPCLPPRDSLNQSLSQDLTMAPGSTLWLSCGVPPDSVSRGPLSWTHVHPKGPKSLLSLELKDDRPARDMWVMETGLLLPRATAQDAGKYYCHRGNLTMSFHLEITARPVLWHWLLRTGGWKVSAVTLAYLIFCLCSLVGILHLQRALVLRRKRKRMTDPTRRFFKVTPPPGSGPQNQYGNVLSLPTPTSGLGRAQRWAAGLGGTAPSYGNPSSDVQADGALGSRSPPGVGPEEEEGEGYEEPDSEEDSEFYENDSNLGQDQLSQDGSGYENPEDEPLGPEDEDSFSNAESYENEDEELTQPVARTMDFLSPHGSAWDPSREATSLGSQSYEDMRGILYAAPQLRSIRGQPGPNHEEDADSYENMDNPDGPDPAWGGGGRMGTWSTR
As to the kind of experiment: Flow cytometry binding to Daudi cells. To be noted: Daudi B tumor cell line.

In the next data set the target is T2, CHO-CD19 cell line (Homo sapiens, UniProt P15391).
T2 construct: an expression plasmid containing the full length cDNA encoding the transmembrane form of CD19; expressed in transfected cells; host or cells: CHO cells
T2 sequence (P15391 20-556): T1 sequence (P15391 20-556)
As to the kind of experiment: Flow cytometry binding to CD19-transfected CHO cells.

In a further data set the test system is CHO-CD19 cells. As to the kind of experiment: Hum-Zap internalization assay (3H-thymidine). The format is cell-based. To be noted: antibody from 30 nM 1:3 dilutions, Hum-Zap 11 nM, 48 hours.
The next data set addresses T3, Raji B tumor cells (Homo sapiens, UniProt P15391).
T3 construct: the CD19 protein is expressed on the surface of tumor cell lines of B cell origin; host or cells: Raji (human Burkitt's lymphoma B cell line)
T3 sequence (P15391 20-556): T1 sequence (P15391 20-556)
As to the kind of experiment: Hum-Zap internalization assay (3H-thymidine). The format is cell-based. The settings on record: antibody from 30 nM 1:3 dilutions, Hum-Zap 11 nM, 48 hours.

For another data set, the system named is human CD19. As to the kind of experiment: ELISA binding to CD19-Fc fusion protein. To be noted: CD19-Fc fusion protein coated at 1.0 μg/ml.
Data set [2] in a line: Chemical denaturation by fluorescence spectroscopy. The settings on record: guanidinium hydrochloride in PBS, 24 hours, 2 μM antibody. The format is physicochemical. As to the method:
The stability of anti-CD19 monoclonal antibodies were compared by measuring the midpoint of chemical denaturation by fluorescence spectroscopy.
Fluorescence measurements of chemical denaturation were performed on a SPEX Fluorolog 3.22 with a Micromax plate reader (SPEX, Edison, N.J.). The measurements were performed on antibody samples that had been left for 24 hours to equilibrate in 16 different concentrations of guanidinium hydrochloride in PBS buffer. The measurements were made in black, low volume, non-binding surface 384-well plates (Corning, Acton, Mass.) and required 2 μM of antibody in a well volume of 12 μL Fluorescence was excited at 280 nm and the emission spectra were measured between 300 and 400 nm. The scan speed was 1 second per nm and slits were set to 5 nm bandpass. A buffer blank was performed using PBS and automatically subtracted from the data.

Another data set has as its target T4, Raji B cell line (Homo sapiens, UniProt P15391).
T4 construct: the CD19 protein is expressed on the surface of tumor cell lines of B cell origin; host or cells: Raji (human Burkitt's lymphoma B cell line)
T4 sequence (P15391 20-556): T1 sequence (P15391 20-556)
As to the kind of experiment: Flow cytometry binding to Raji cells. As to the method:
Binding of the CD19 HuMAbs by flow cytometry to the B cell tumor lines Raji and Daudi, or to a CHO-CD19 transfected cell line was assessed. CHO cells were transfected with an expression plasmid containing the full length cDNA encoding the transmembrane form of CD19. […] A known murine anti-CD19 antibody was used as a positive control. The cells were washed and detected by either a phycoerythrin-labeled anti-human or anti-mouse secondary antibody and analyzed by flow cytometry. The results for binding to the CHO-CD19 cell line, Daudi B cell line, Raji B cell line and an expanded binding set against the Raji B cell line are shown in FIGS. 25A, 25B, 25C and 25D, respectively. […] All results are shown as measured by the geometric mean fluorescent intensity (GMFI) of staining.

“Also recorded” adds a separate entry of the source.

B1: 47G4: human monoclonal anti-CD19 antibody, VH SEQ ID NO: 2 and VL SEQ ID NO: 10 (antibody, listed as Homo sapiens, V domains shown)
VH: QVQLVQSGAEVKKPGSSVKVSCKDSGGTFSSYAISWVRQAPGQGLEWMGGIIPIFGTTNYAQQFQGRVTITADESTSTAYMELSSLRSEDTAVYYCAREAVAADWLDPWGQGTLVTVSS
VL: [about 100 residues not printed]FGPGTKVDIK
Regarding B1, in data set [1], the “Thermo Stability Tm1” value was 67.2 °C. Moreover, the entries for the “binding by flow cytometry (GMFI)” value in the data set with Daudi B cell line, with CHO-CD19 cell line and in the data set with Raji B cell line were “shown to bind the Daudi B tumor cell line”, “bound to the CHO-CD19 cell line” and “bound to the Raji B cell line”, respectively. In addition, the “3H-thymidine incorporation (internalization with Hum-Zap)” value in the data set on CHO-CD19 cells and in the data set with Raji B tumor cells was “antibody concentration dependent decrease” throughout. The “binding to human CD19 by ELISA” value in the data set with human CD19 was “specifically binds to human CD19; also recorded: specifically bound to the human CD19 peptide”. In addition, the “Unfolding Midpoint” value in data set [2] was determined as 1.68 M.
